Results on 42 molecules are retold here after ChEMBL document CHEMBL4888484, “Replenishing the malaria drug discovery pipeline: Screening and hit evaluation of the MMV Hit Generation Library 1 (HGL1) against asexual blood stage Plasmodium falciparum ,using a nano luciferase reporter read-out” (2022).

The whole screen tested about 150,000 compounds, of which about 540 (0.36%) showed an effect of 50% or more. Some of the results follow.

The term % Inhibition denotes the drop in the measured response relative to a control, in per cent.

This assay deals with Plasmodium falciparum. Nature of the assay: Primary screen in NF54 nanoGlo assay, in single point, at 2uM, 72h; a lower Z score goes with more inhibition. It counts as functional, Erythrocyte. Particulars: timepoint 72 hour.
For the molecule `COCc1c(C(=O)NC[C@H]2COCCO2)cnn1-c1ncc2c(n1)-c1ccccc1CCC2`, the “% Inhibition” value was 2% and the Z score was -0.36.
As to `COc1ccc(NC(=O)c2nn(CC3CC3)c3c2COCC3)c(OC)c1`, the “% Inhibition” value is recorded as -10% and the Z score is reported as 1.89.
With `CCOC1CC(NC(=O)NC(C)c2nc(C)cs2)C1(C)C` (centres undefined), the “% Inhibition” value is given as -6% and the Z score is 0.77.
Turning to `Cc1ccc2cc3n(c2c1)C[C@](C(=O)NC1CCCCCCC1)(c1ccccc1)N(Cc1cccc(F)c1)C3=O`, the “% Inhibition” value is listed as 4% and the Z score is on record as -0.64.
As to `CC(C)CC(C)N(C)C(=O)NC(C)Cc1ccsc1` (centres undefined), the “% Inhibition” value was -3% and the Z score came to 0.26.
The matching figures for `O=C(c1cccnc1-c1ccc(Cl)c(C(F)(F)F)c1)N1CCCC1`: -8% and 1.18.
The matching figures for `CN(C)C(=O)c1cc(S(=O)(=O)N2CCCC[C@H]2c2nc(-c3ccccc3)c[nH]2)cn1C`: -7% and 0.98.
With `Cc1[nH]ccc1C(=O)NC1CCC(CS(C)(=O)=O)CC1` (centres undefined), the “% Inhibition” value is -5% and the Z score is 0.59.
The matching figures for `C[C@H](NC(=O)c1cnn2c1OCCC2)c1ccccc1`: -3% and 0.43.
On to `CCC[C@H]1CN(c2nnc(-c3ccccc3)s2)C[C@@H]1N`, for which the “% Inhibition” value came out at 4% and the Z score is recorded as -0.7.
In the case of `FC(F)(F)C(Oc1nc(N2CCCCCC2)nc(N(c2ccccc2)c2ccccc2)n1)C(F)(F)F`, the “% Inhibition” value worked out at 4% and the Z score is recorded as -0.51.
The matching figures for `OCc1cc(-c2cccc3ccsc23)ccn1`: -6% and 0.53.
As to `Cc1cc(-n2ccnc2)ccc1CN1C[C@H](C)OCC1(C)C`, the “% Inhibition” value was found to be 5% and the Z score was -0.91.
The matching figures for `CC(C)c1ccc([C@@H]2c3cccn3CCCN2Cc2ccco2)cc1`: 6% and -0.95.
As for `Cc1ccc(CCC(=O)N[C@@H](C)c2ccccc2N2CCOCC2)o1`, the “% Inhibition” value is -12% and the Z score came out at 1.65.
With `COc1ccc(C2CN(C(=O)c3ccccc3C)CC2C(=O)NC2CC2)c(OC)c1` (centres undefined), the “% Inhibition” value is recorded as -10% and the Z score turned out to be 1.18.
Regarding `CCn1cc([C@H](C)NCc2cnn(CC)n2)cn1`, the “% Inhibition” value is on record as -1% and the Z score worked out at 0.13.
As to `CCCc1c(NC(=O)[C@H]2OCCO[C@H]2C)cnn1-c1cccc(C)c1`, the “% Inhibition” value is -5% and the Z score is 0.55.
In the case of `COc1cccc2cc(CN3CCN(Cc4cc(C)on4)CC3)oc12`, the “% Inhibition” value is reported as -12% and the Z score is 1.06.
The matching figures for `Cc1oc(-c2ccccc2Cl)cc1C(=O)NCc1csc(N)n1`: -3% and 0.64.
The matching figures for `CC(NC(=O)C1CCCN1c1ncnc2ccccc12)c1ncon1` (centres undefined): -8% and 1.29.
As for `CC(C)c1cc(C(=O)N2CCC[C@H](c3[nH]ncc3-c3ccc(F)cc3)C2)n(C)n1`, the “% Inhibition” value is on record as -4% and the Z score was found to be 0.63.
With `CCc1ccc(C(=O)N2CCC(n3cnnc3COC)CC2)cc1`, the “% Inhibition” value is -6% and the Z score worked out at 0.96.
The matching figures for `O=C(O)CC[C@@H]1CN(c2nccc3ccccc23)CC[C@@H]1N1CCOCC1`: -12% and 1.22.
For `CC(C)C(=O)N(CC(=O)N1CCCN(c2ccc(-c3ccccc3)nn2)CC1)[C@@H](C)c1ccccc1`, the “% Inhibition” value is on record as -12% and the Z score stood at 1.13.
As for `CCNC(=O)N1CCN([C@H](C(=O)N(C)Cc2ccccc2)C2CCCC2)CC1`, the “% Inhibition” value is -1% and the Z score was found to be 0.24.
The matching figures for `CC(C)(C)OC(=O)N1CCN(c2nnc(N)[nH]2)CC1`: 10% and -1.27.
Consider `COc1cc2c(cc1OC)CN(C(=O)c1cccc(N3CCCC3=O)c1)CC2`, for which the “% Inhibition” value turned out to be 5% and the Z score was -0.76.
The matching figures for `Cn1nc(-c2nc(C3CCOCC3)no2)c2c1CN(C(=O)Cc1cccs1)C2`: 8% and -1.22.
In the case of `CC1CN(CC2CCCO2)CCC1NC(=O)N1CCCC1C1CCC1` (centres undefined), the “% Inhibition” value is reported as -5% and the Z score amounted to 0.86.
Consider `O=C(c1nccc2ccccc12)N1CC[C@H](OCC2CC2)C1`, for which the “% Inhibition” value is recorded as -4% and the Z score is listed as 0.44.
The matching figures for `Cc1nc(O)cc(CNC(=O)c2cccc(-c3ccc(C(C)C)nn3)c2)n1`: -10% and 1.84.
The matching figures for `Cn1cc(CN[C@H]2CCCN(c3ccc(C#N)cc3F)C2)c(=O)n(C)c1=O`: -5% and 0.48.
For the molecule `CCCn1cc(C(=O)N(Cc2ccncc2)C[C@@H]2CCC(=O)N2)c(C)n1`, the “% Inhibition” value worked out at 0% and the Z score turned out to be 0.07.
The matching figures for `CC(=O)N1CC(OCC(=O)Nc2nc(-c3ccc(F)c(Cl)c3)cs2)C1`: 21% and -2.49.
The matching figures for `CCn1c(-c2cnccn2)nnc1N1CCC(C)(COC)CC1`: -10% and 1.17.
Take `CN(Cc1ccc(F)cc1)c1cc([C@H]2CCOC2)nc(NCCO)n1`: the “% Inhibition” value is given as -12% and the Z score amounted to 2.33.
The matching figures for `CC(C)[C@H]1C(=O)N(C)CCN1CC(=O)NCCc1ccc(F)cc1`: -9% and 0.87.
`CO[C@H]1CCN(C(=O)NC(C)(C)C)C1`: the “% Inhibition” value was -12% and the Z score is on record as 1.72.
The matching figures for `N#Cc1cnc(NC2(CN3CCCCC3)CC2)nc1N`: -6% and 0.95.
For `CN1C(C)(C)CC(n2cc(-c3ccc(C#CCCO)cc3)nn2)CC1(C)C`, the “% Inhibition” value is on record as -4% and the Z score was found to be 0.57.
With `C[C@]1(O)CCCN(c2cncc(OCC3CCCC3)n2)C1`, the “% Inhibition” value is recorded as -7% and the Z score came out at 1.2.
